Where “and” joins values, the source holds several entries; their conditions need not be identical. Equal entries are not always repeated. Among all 94,000 compounds or so, about 6,200 (6.6%) were called active. Inconclusive means that the source gave no clear call. Such entries were picked first, then a sample of the others. Calls follow the shape of the dose curve; as a rule, active = well fitted inhibition curve with a large enough effect; inconclusive = small, poorly fitted or top-dose-only effect; inactive = flat fitted curve, though single readings scatter. Potencies beside an inconclusive call are fits to weak or partial responses and may not hold up.
experiment: Cytotoxic Profiling in HEK 293 Cell Line of Diverse Libraries Using Quantitative High-Throughput Screening; conditions: HEK 293 viability, ATP luminescence (CellTiter-Glo), 48-72 h; activity change, negative = cytotoxicity: at 115 µM (top of the series) unless noted; series mostly up to 115 µM; also: nearly all actives have a fitted effect of over 60% in size
How it was run: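 250 HEK 293 cells/well; compound by pintool; incubated 48 or 72 hr at 37 degree Celsius; CellTiter-Glo added, 10 min RT, luminescence imaged.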
% is scaled to controls: 0 for no effect and ±100 for the full control effect; potency is read from the fitted curve at half-maximal effect; tags tell the direction and shape of the fitted curve.

SMILES | Potency | activity change, negative = cytotoxicity | outcome
O=C(c1ccccc1F)N1CC(Oc2ccc3c(c2)OCO3)C1 | inconclusive: 112 µM [inhibitor, single point] | – | –
C=CCN1C[C@@H]2C[C@@H](C(=O)NC)N(C(=O)CCc3ccccc3)c3cccc(c32)C1=O | – | inactive: -10.5% [at 57.5 µM] | –
c1cn(-c2ccc(-c3nc(C4CCOC4)no3)cc2)cn1 (centres undefined) | – | inactive: -3.78% | –
COc1cccc(-c2ccc(C(=O)NCCNC(=O)c3c(C)noc3C)cc2)c1 | inconclusive: 79.4 µM [inhibitor, partial curve] | – | –
CCC(C)(C)C(=O)N1CCC2(CCc3nn(Cc4ccccc4)c(=O)n3CC2)CC1 | inconclusive: 89.1 µM [inhibitor, single point] | – | –
COc1ccccc1CC(=O)N1CCCc2ncc(C(=O)NCCc3ccccc3)cc21 | inconclusive: 100 µM [inhibitor, partial curve, poor fit] | – | –
Cc1nc2scc(CC(=O)N3CCC(C)CC3)n2c(=O)c1-c1cc(C)n(-c2cccc(Cl)c2)n1 | inconclusive: 56.2 µM [inhibitor, partial curve, poor fit] | – | –
c1ccc(CN2CCNc3cc(-c4cccnc4)ncc3C2)cc1 | inconclusive: 100 µM [inhibitor, partial curve] | – | –
COc1ccc(CN2C[C@H]3CN(Cc4ccc(S(C)(=O)=O)cc4)CCN3C2=O)cc1 | inconclusive: 79.4 µM [inhibitor, partial curve] | – | –
Cc1noc([C@H]2CCN(S(=O)(=O)Cc3ccccc3)C[C@H]2NC(=O)C2CC2)n1 | – | – | inactive
CN1CC(=O)N(C2CCCNCC2)Cc2c1ncnc2N1CCNC(=O)C1 (centres undefined) | – | – | inactive
Cc1ccccc1-c1nccc2c(=O)cc(N3CCOCC3)oc12 | inconclusive: 100 µM [inhibitor, partial curve, poor fit] | – | –
COc1ccc(C2Cn3nnc(C(=O)N4CCN(C(=O)c5ccccc5C)CC4)c3CO2)cc1 (centres undefined) | inconclusive: 50.1 µM [inhibitor, partial curve, poor fit] | – | –
COc1ccccc1N1CCN(CC[C@H]2CN(C(=O)Nc3ccc(C(F)(F)F)cc3)CC[C@H]2CC(=O)O)CC1 | – | inactive: -3.44% | –
COc1ccc([C@H]2CN(C(=O)C3(c4ccc(F)cc4)CC3)C[C@@H]2N)cc1 | inconclusive: 89.1 µM [inhibitor, single point] | – | –
O=C(CC1CCOCC1)NCc1ccc(N2CCOCC2)cc1 | – | inactive: -9.6% | –
COc1ccccc1Nc1ccnc(N2CCCC(C(=O)NCCc3ccccc3F)C2)n1 (centres undefined) | active: 35.5 µM and inconclusive: 44.7 µM [inhibitor, partial curve, poor fit] | – | –
CN1[C@@H](CCC(=O)N2CCN(c3ccccc3)CC2)CNC(=O)[C@@H]2[C@H]1CCN2Cc1cccc(Cl)c1 | inconclusive: 39.8 µM [inhibitor, partial curve] | – | –
Cc1ccc(NC(=O)c2nc3sccn3c2-c2ccncc2)cc1 | active: 112 µM | – | –
COCCCNC(=O)c1ccc2c(c1)CC(=O)N2Cc1ccccc1 | inconclusive: 25.1 µM [inhibitor, full curve] | – | –
COc1ccc(-c2cc(C(=O)Nc3cccc(C(F)(F)F)c3)c3cnn(C)c3n2)cc1 | active: 35.5 µM | – | –
Cc1ccc(CN2CCCC(c3nc(C(C)C)no3)CCNC(=O)CC2)o1 (centres undefined) | inconclusive: 89.1 µM [inhibitor, single point] | – | –

SMILES | Potency | activity change, negative = cytotoxicity | outcome
O=C(CCC1CCN(S(=O)(=O)c2ccccc2)CC1)NCc1ccccc1 | inconclusive: 8.91 µM [inhibitor, full curve, poor fit] | – | –
C#CCNC(=O)c1nc(-c2ccsc2)c2cnccn12 | active: 100 µM | – | –
O=C(O)C1CCc2sc(C(=O)N3CCCCCC3)cc2C1 (centres undefined) | – | inactive: 0.213% | –
CCCCn1c(=O)c(C(=O)NCc2ccc(C(F)(F)F)cc2)nc2cccnc21 | inconclusive: 50.1 µM [inhibitor, partial curve, poor fit] | – | –
CC(C)c1cccc(NC(=O)CN2C(=O)NC3(CCCCC3)C2=O)c1 | inconclusive: 17.8 µM [inhibitor, full curve, poor fit] | – | –
COc1cccc(C(=O)NC2CCCN(c3cc(-c4ccc(F)cc4)[nH]n3)C2)c1 (centres undefined) | inconclusive: 39.8 µM [inhibitor, full curve, poor fit] | – | –
O=S(=O)(c1ccc2c(c1)OCCO2)N1CCC(Cc2nc(-c3cccnc3)n[nH]2)C1 (centres undefined) | – | inactive: -1.18% | –
CCCS(=O)(=O)N1CCC2(CCCN(Cc3cccc(F)c3F)C2=O)C1 (centres undefined) | inconclusive: 100 µM [inhibitor, single point] | – | –
Cc1cc(OCC(=O)O)c(C)c2c1CC[C@@H]([C@H](C)C(=O)NCc1ccccc1)C2 | – | – | inactive [at 172 µM]
Cc1ccc(C2Cn3nnc(C(=O)NC4CCCCCC4)c3CO2)cc1 (centres undefined) | inconclusive: 50.1 µM [inhibitor, partial curve, poor fit] | – | –
CC1=C[C@@H](CN(CC2CC2)CC2CC2)[C@H](C(C)C)C[C@H]1Cc1nc2c(C)cccc2[nH]1 | active: 89.1 µM | – | –
COCCN1CCCCCC(O)c2cc(C(=O)N3CCN(c4ccc(F)cc4)CC3)ccc21 (centres undefined) | inconclusive: 50.1 µM [inhibitor, partial curve, poor fit] | – | –
CC1=C[C@@H](CN)[C@H](C(C)C)C[C@H]1Cc1nc2ccc(F)cc2[nH]1 | active: 79.4 µM | – | –
CN(C)C[C@@H]1CN(Cc2ccccc2)C[C@H]1NC(=O)C1CC1 | – | – | inactive
CCOC(=O)C[C@@H]1C[C@@H](C(C)C)[C@H](CNC(=O)c2ccc(C#N)cc2)C=C1C | inconclusive: 70.8 µM [inhibitor, partial curve, poor fit] | – | –
CCOc1ccccc1CN1C[C@@H]2C(=O)N(Cc3ccc4c(c3)OCO4)C(=O)[C@@H]2C1 | inconclusive: 89.1 µM [inhibitor, single point] | – | –
COc1ccc(O[C@H]2COCCN(S(=O)(=O)c3ccc(Cl)cc3)C2)cc1 | inconclusive: 70.8 µM [inhibitor, partial curve] | – | –
Cc1ccc(-c2nnc(C3CN(C(=O)C4(c5ccccc5)CC4)CC34CCOCC4)o2)cc1 (centres undefined) | inconclusive: 70.8 µM [inhibitor, partial curve] | – | –
O=C(CCc1ccccc1)N1CCC(c2nc(C3CCOCC3)no2)C1 (centres undefined) | – | inactive: -11.5% | –
Cc1noc(C)c1-c1cc2c(cc(C)n2C)c(-c2cnn(C)c2)n1 | inconclusive: 39.8 µM [inhibitor, full curve] | – | –
Cc1ccc(CN2CCCC(c3nn(-c4ccc(Cl)cc4)c(=O)[nH]3)C2)cc1 (centres undefined) | active: 35.5 µM | – | –
O=C(NCC1CC1)c1ccc2nnc(-c3ccoc3)n2c1 | – | inactive: 4.55% [at 172 µM] | –

SMILES | Potency | activity change, negative = cytotoxicity | outcome
COc1ccccc1-c1ccc(C(=O)N2CCC(NC(=O)Cc3ccccn3)CC2)cc1 | inconclusive: 89.1 µM [inhibitor, single point] | – | –
CC(C)CCN1CCC2(CC1)C(=NC1CCCCC1)NC(=O)N2c1cc(F)cc(F)c1 | inconclusive: 89.1 µM [inhibitor, single point] | – | –
COc1ccc(CC(=O)NC2CCN(c3ccnc4ccnn34)C2)cc1 (centres undefined) | inconclusive: 31.6 µM [inhibitor, full curve, poor fit] | – | –
Cn1cnc2cc(-c3cccc(N4CCOCC4)c3)cc(C(=O)NCc3cccnc3)c21 | – | inactive: -21.3% [at 172 µM] | –
O=C1CCN(Cc2cccnc2)CCCC(C(=O)Nc2ccccc2)CCN1 (centres undefined) | – | inactive: -0.7% | –
Cc1cc(=O)n(CC(=O)Nc2ccccc2)c(-c2ccccc2)n1 | inconclusive: 39.8 µM [inhibitor, full curve, poor fit] | – | –
Cc1ccc(F)cc1CNC(=O)CCc1nnc(CCc2c[nH]c3ccccc23)o1 | inconclusive: 89.1 µM [inhibitor, single point] | – | –
CN1CCc2c([nH]c3ccccc23)C12CCN(C(=O)c1ccccc1)CC2 | – | inactive: -26.6% | –
COC1CN(c2ccc(C)cc2)C12CCN(C(=O)Cc1ccccc1)CC2 (centres undefined) | inconclusive: 89.1 µM [inhibitor, single point] | – | –
CC(C)CCNC(=O)c1cnc2n1CCN(CCCc1ccccc1)CC2 | inconclusive: 100 µM [inhibitor, partial curve, poor fit] | – | –
O=C(NC1CCN(Cc2cccc(-c3cccs3)c2)CC1)c1ccc(Cl)nc1 | inconclusive: 31.6 µM [inhibitor, partial curve, poor fit] | – | –
Cc1oc2ccn(Cc3cccc(F)c3)c(=O)c2c1C(=O)NCc1cccnc1 | inconclusive: 50.1 µM [inhibitor, partial curve, poor fit] | – | –
CC(=O)N1CCC(C(=O)N2CCCN(S(=O)(=O)c3ccccc3)CCC(=O)NCC2)CC1 | – | inactive: -3.55% | –
COc1ccc(F)cc1-c1cccc(C(=O)NCC(=O)NCCCc2ccccc2)c1 | inconclusive: 56.2 µM [inhibitor, partial curve, poor fit] | – | –
O=C(NCC1CCCCC1)c1nc2sccn2c1-c1ccc(C(F)(F)F)cc1 | inconclusive: 28.2 µM [inhibitor, full curve] | – | –
C#CCNC(=O)c1ccc2oc(-c3ccncc3)nc2c1 | inconclusive: 126 µM [inhibitor, single point] | – | –
O=C(c1cccs1)N1CCOCC2(CN(Cc3cc(F)cc(F)c3)C2)C1 | inconclusive: 126 µM [inhibitor, single point] | – | –
OCC1(Cc2ccc(Cl)cc2)CCNCC1 | – | inactive: -27.1% | –
COC(=O)C1=C(C)N=C2SC=C(CC(=O)NCC3CCCO3)N2C1c1ccccc1OC (centres undefined) | inconclusive: 79.4 µM [inhibitor, single point] | – | –
CN1C[C@@H](NC(=O)CC(C)(C)C)C[C@H]1c1nc(-c2ccc(OC(F)(F)F)cc2)no1 | inconclusive: 89.1 µM [inhibitor, partial curve, poor fit] | – | –

From PubChem BioAssay AID1345083 (National Center for Advancing Translational Sciences (NCATS), 2018)
